The results in this text go back to ChEMBL document CHEMBL1201862, “PubChem BioAssay data set” (2004).

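Five compound concentrations were applied to cells in 96-well plates for 48 hours; endpoints were derived by simple linear interpolation of the resulting dose-response curve. GI50: concentration for 50% inhibition of growth.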 Calls of active or inactive are those of the source. Rule as the data show it: active = GI50 up to about 1.1 µM and inactive = higher. Some results are limits rather than exact numbers.

This experiment relates to NCI-H322M. Briefly: inhibition of tumour cell growth, NCI panel, 48 h.
For `CC(=O)Nc1ccc2nc(-c3cccc(Cl)c3)cc(O)c2c1`, the GI50 was inactive: 50.9 µM.
Under `CC(=O)c1cc2c(s1)C(=O)c1sccc1C2=O` stands active: 0.189 µM.
As to `Cc1cnc2sn(-c3ccc(Oc4ccccc4)cc3)c(=O)c2c1`, the GI50 is inactive: 34.3 µM.
For `CCOC(=O)c1c(SCCN2CCCCC2)n(-c2ccccc2)c(=S)n(-c2ccccc2)c1=O` the value was inactive: 36.1 µM.
Turning to `O=C(O)c1[nH]c(C(=O)O)c(CC(F)(F)C(F)(F)C(F)(F)F)c1CC(F)(F)C(F)(F)C(F)(F)F`, the GI50 is inactive: > 100 µM.
For `COC(=O)C1Cc2c([nH]c3ccccc23)-c2[nH]c3ccccc3c2CC(NC(C)=O)C(=O)NCC(=O)NCC(=O)N1` (stereo not given) the value was inactive: > 100 µM.
Turning to `CC1=NN(C(=O)Cc2ccccc2)C(=O)/C1=C\C=C\c1ccccc1`, the GI50 is inactive: > 100 µM.
For `CN(C)C(=O)N(CCCl)N=O` the value was inactive: > 100 µM; for `Nc1nc(N)c(CCCCc2ccc([N+](=O)[O-])cc2)c(N)n1`, inactive: > 100 µM; for `C[C@H](c1ccccc1)n1c(N)c(-c2nc3ccccc3s2)c2ccc([N+](=O)[O-])cc2c1=O`, inactive: 3.07 µM.
`COC(=O)C(=O)C(C(=O)C=C(C)C)C(=O)C(=O)Nc1nc2ccc([N+](=O)[O-])cc2s1` (stereo not given): the GI50 was inactive: 34.2 µM.
Turning to `CC1(C)C2C=CC1(C)C1(CC2)OCCO1` (stereo not given), the GI50 was inactive: > 100 µM.
As for `CSCCCN(CCCSC)CCCSC`, the GI50 was inactive: > 100 µM.
For `COc1cc2c(cc1O)[C@@H]1Cc3c(cc(OC)c(OC)c3Oc3cc4c(cc3OC)CCN(C)[C@@H]4Cc3ccc(O)cc3)[C@H](C2)N1C` the value was inactive: > 100 µM; for `CC1=C(C(=O)Nc2ccccc2)C(c2ccc(C3C(C(=O)Nc4ccccc4)=C(C)NC(C)=C3C(=O)Nc3ccccc3)cc2)C(C(=O)Nc2ccccc2)=C(C)N1`, inactive: 7.91 µM.
For `CC1(C)C2CC3C4CC5(Nc6ccccc6C5N41)[C@]3(C)CC2=O` (stereo not given in full) the value was inactive: > 50 µM.
Turning to `CC(Cl)(/C=C/Cl)C(Cl)/C=C/C(Cl)(CCl)CBr` (stereo not given), the GI50 was inactive: 11.7 µM.
Under `CCOP(=O)(OCC)OC1c2[nH]ccc2-c2cc(C(=O)OC)[nH]c2C1OC` (stereo not given) stands inactive: > 100 µM.
Consider `CNC1C(O)CC(OC2C/C=C(\C)C/C(C)=C/C=C/CCC(C)CNC(=O)/C=C/C=C/C2C)OC1C` (stereo not given), for which the GI50 is active: 0.802 µM.
For `O=C(NC(Cl)(C(F)(F)F)C(F)(F)F)c1ccc(F)cc1` the value was inactive: > 100 µM; for `O[C@H]1[C@H](O)[C@@H](Cn2nnc(-c3ccccc3)c2-c2ccccc2)OCO[C@@H]1Cn1nnc(-c2ccccc2)c1-c1ccccc1`, inactive: 7.08 µM; for `COc1ccc(OC)c2c1C=CC(Br)=CC2`, active: 0.48 µM.
Take `CC12c3ccccc3C(OC=O)(c3ccccc31)C1(C)c3ccccc3C2(OC=O)c2ccccc21`: the GI50 was inactive: > 100 µM.
Turning to `COc1cccc(NC(=O)CC(=O)N2N=C(N(CCC#N)c3ccc(Cl)cc3)CC2c2ccccc2)c1` (stereo not given), the GI50 was inactive: > 100 µM.
Under `O=C(O)CNC(=O)c1ccc(-c2ccccc2)cc1` stands inactive: > 100 µM.
On to `CC(Oc1ccc(OCC2CCCCC2)cc1)C(=O)NCCO` (stereo not given), for which the GI50 is inactive: > 100 µM.
For `CN1COc2c(n(C)c(=O)[nH]c2=O)C1`, the GI50 is inactive: > 100 µM.
Under `CC(=O)N1CCC2(c3ccccc3N(C(C)=O)C2c2ccc(O)cc2)C1C(=O)O` (stereo not given) stands inactive: > 100 µM; under `CN(NC(=O)/C(=C/c1ccc(O)cc1)NC(=O)c1ccccc1)c1ccnc2cc(Cl)ccc12`, inactive: 20.3 µM; under `N/C(=N\c1ccc(Cl)cc1)NS(=O)(=O)c1ccc(-c2ccccn2)s1`, inactive: 18.7 µM.
As to `CCN(CC)Cc1ccc(C(=S)Nc2ccc(C)cc2)s1`, the GI50 was inactive: 17.8 µM.
Under `Cc1cc(NCCCCCCCCNc2cc(C)nc3cc(N)ccc23)c2ccc(N)cc2n1` stands inactive: 21.2 µM; under `CNC(=O)NCNC(=O)NC`, inactive: > 100 µM.
For `CCCN(CCC)c1c([N+](=O)[O-])cc(C(=O)N(C)C)cc1[N+](=O)[O-]`, the GI50 is inactive: > 100 µM.
For `COC(=O)c1cc(/C=C2\Cc3cc4c(cc3C2=O)CCC4)cc2c1CCC2`, the GI50 is inactive: > 100 µM.
For `CCCCCCOc1ccc(NC2=C(Cl)C(=O)c3c(O)ccc(O)c3C2=O)cc1` the value was inactive: 2.01 µM; for `COc1ccc(N)c(C(O)CCNC(C)=O)c1` (stereo not given), inactive: > 100 µM.
As to `CCOC(=O)c1c(CN2CCOCC2)n(Cc2ccccc2)c2c1cc(O)c1nc(C)c(C)nc12`, the GI50 was inactive: > 100 µM.
As for `O=C(Nc1cc(Cl)c(I)c(Cl)c1)C(F)(F)F`, the GI50 was inactive: 30.3 µM.
For `O=C1CC2OCC=C3CN4CCC56c7ccccc7N1C5C2C3CC46O` (stereo not given) the value was inactive: > 100 µM.
For `CCCCCCCCCCCCCCCCCCN(C)C(COC)COP(=O)([O-])OCC[N+](C)(C)C` (stereo not given) the value was inactive: 8.38 µM; for `CC(C)=CCC[C@@H](C)C1=C(O)C(=O)C(C)=C(Nc2ccccc2Cl)C1=O`, inactive: 21.2 µM.
Under `Cc1cc(=O)n2c(cc3cccccc32)n1` stands inactive: > 100 µM; under `N#Cc1cc(C#N)c(N)nc1N`, inactive: > 100 µM.
For `COc1ccc2c(c1)CC[C@@H]1[C@@H]2CC[C@]2(C)C(=O)/C(=C/c3ccc(C#N)cc3)C[C@@H]12`, the GI50 is inactive: > 100 µM.
For `COc1ccc2nc(-c3ccccc3)c(=O)[nH]c2c1` the value was inactive: > 100 µM; for `COc1ccc(-c2nc3ncccn3c2-c2ccc([S+](C)[O-])cc2)cc1` (stereo not given), inactive: > 100 µM; for `Cc1ccc(S(=O)(=O)N2CCN(S(=O)(=O)c3ccc(C)cc3)CCN(S(=O)(=O)c3ccc(C)cc3)Cc3cc(Br)c(Br)cc3CN(S(=O)(=O)c3ccc(C)cc3)CC2)cc1`, inactive: 89.1 µM.
`O=C1C=CC2=[N+]([O-])C(c3ccccc3)(c3ccccc3)/C(=N\c3ccccc3)C2=C1`: the GI50 was inactive: 7.08 µM.
For `C/C=C1/C=CC2c3[nH]c4ccccc4c3CCN2C1` (stereo not given) the value was inactive: > 400 µM; for `C=C1CC[C@]2(C)[C@H](CC[C@@]34C[C@@H](CC[C@H]32)[C@@H](C(=O)O)C4)C1(C)C`, inactive: 7.31 µM.
Consider `Nc1nc(Cl)c(C=O)c(NCC2(CO)CC(CCc3ccccc3)C2)n1` (stereo not given), for which the GI50 is inactive: 13.5 µM.
Under `O=P1(c2ccccc2)Nc2ccccc2SSc2ccccc2N1` stands inactive: 16.7 µM.
Under `Cc1n[nH]c(=O)n1/N=C/c1ccc(Cl)cc1` stands inactive: 86.3 µM; under `Cc1ccc(Nc2nc(=O)[nH]c(=O)[nH]2)cc1N`, inactive: > 100 µM; under `Cc1oc2nc(N(C)C)nc(NN)c2c1C`, inactive: > 100 µM.
For `COc1ccc(/C=C(\Cl)c2ccc(OC)cc2)cc1` the value was inactive: > 100 µM.
Turning to `CC(=O)OCCc1cc2ccccc2oc1=O`, the GI50 is inactive: > 100 µM.
For `COC(=O)[C@@H]1c2cc3c(c(O)c2[C@@H](OC2OC(C)C(OC)C(C)(OC)C2OC)C[C@]1(C)O)C(=O)c1c(O)cc2c(c1C3=O)O[C@H]1O[C@]2(C)[C@H](O)[C@@H](N(C)C)[C@@H]1O` (stereo not given in full) the value was active: 0.0232 µM; for `CCOC(=O)c1c(NS(=O)(=O)c2ccccc2)sc2c1CCCC2`, inactive: 69.5 µM.
Under `CC1CN(c2ccc(Cl)cc2)CC(C)(C)OC(=O)O1` (stereo not given) stands inactive: > 100 µM; under `Cc1sc2nc(N(C)C)oc(=O)c2c1C`, inactive: > 100 µM.
`COC(=O)[C@@H]1CCc2nc3ccccc3c(=O)n21`: the GI50 is inactive: > 100 µM.
For `O=C(O)c1nc2cc(Cl)ccc2[nH]c1=O` the value was inactive: > 100 µM; for `CCCCN(Cc1ccccc1)/C(=N/C#N)N(Cc1ccccc1)Cc1ccccc1`, inactive: 32.1 µM.
As to `CCSC1(SCC)CC(Cc2ccc(OC)cc2)N(/C=N/C(C)(C)C)C1` (stereo not given), the GI50 is inactive: 17.3 µM.
Consider `Cc1nc2c(=O)n(C)c(=O)nc-2n(CCO)c1C`, for which the GI50 is inactive: > 100 µM.
Under `CSc1nc2c(c(N(C)C)n1)C=Nn1c(nc3ccccc31)S2` stands inactive: 98.9 µM.
As to `CN(C)CCCNC(=O)c1cc(NC(=O)c2cc(NC(=O)[C@@H]3C[C@H]3C(=O)Nc3cc(C(=O)Nc4cc(C(=O)NCCCN(C)C)n(C)c4)n(C)c3)cn2C)cn1C`, the GI50 was inactive: > 100 µM.
For `COc1ccc(C2=NN(C(=O)c3ccc(Cl)cc3)C(O)(c3cc(F)c(Cl)cc3Cl)C2)cc1OC` (stereo not given) the value was inactive: 32.6 µM; for `O=C(Cc1ccccc1)c1ccc2[nH]c(=O)oc2c1`, inactive: 70.6 µM.
On to `CN(C)CCCNC(=O)CCNC(=O)c1cc(NC(=O)c2cc(NC(=O)c3cc(NC(=O)CCCNC(=O)c4cc(NC(=O)c5cc(NC(=O)c6nccn6C)cn5C)cn4C)cn3C)cn2C)cn1C`, for which the GI50 is inactive: > 100 µM.
With `C=C(C)CCC1C=[N+]([O-])OC(C)(C)C1(C)C` (stereo not given), the GI50 is inactive: > 100 µM.
Under `O=C(CSC(=S)N1CCOCC1)Nc1nc2c(s1)CCCC2` stands inactive: > 100 µM; under `O=C1C=CC2(C=C1)O[C@H](COCc1ccccc1)[C@@H](COCc1ccccc1)O2`, inactive: 16.1 µM.
As for `O=C(/C=C/c1ccc(O)cc1)OC[C@@H](O)COC1OC(CO)C(O)C(O)C1O` (stereo not given in full), the GI50 is inactive: > 100 µM.
Under `COC1=NN2C(OC)(c3ccccc3)c3c(-c4ccccc4)sc(-c4ccccc4)c3C2(c2ccccc2)S1` (stereo not given) stands inactive: > 100 µM; under `CN1CC2=C(OC(N)=C(C#N)C2c2cccs2)/C(=C/c2cccs2)C1` (stereo not given), inactive: 21.4 µM.
With `COc1cc2cc(C(=O)N3CC(CCl)c4c3cc([N+](=O)[O-])c3ccccc43)[nH]c2c(OC)c1OC` (stereo not given), the GI50 is inactive: > 91 µM.
Turning to `COc1cc(-c2oc3c(OC)c(O)c(OC)c(O)c3c(=O)c2OC)ccc1O`, the GI50 is inactive: 65.8 µM.
